From article PMC4336329 (PLoS ONE, 2015)
The whole screen tested about 310,000 compounds, of which about 14,000 (4.5%) showed an effect of 50% or more. The effect is printed as a negative number. The list shows a part of the results.

Target: human ether-à-go-go-related gene (hERG) potassium channel (human, UniProt Q12809)
Test: primary screen, population patch clamp on CHO cells stably expressing hERG
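Also: peak tail current of the secondary pulse compared with the same well before compound.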

human ether-à-go-go-related gene (hERG) potassium channel, sequence (Q12809 whole entry, looked up): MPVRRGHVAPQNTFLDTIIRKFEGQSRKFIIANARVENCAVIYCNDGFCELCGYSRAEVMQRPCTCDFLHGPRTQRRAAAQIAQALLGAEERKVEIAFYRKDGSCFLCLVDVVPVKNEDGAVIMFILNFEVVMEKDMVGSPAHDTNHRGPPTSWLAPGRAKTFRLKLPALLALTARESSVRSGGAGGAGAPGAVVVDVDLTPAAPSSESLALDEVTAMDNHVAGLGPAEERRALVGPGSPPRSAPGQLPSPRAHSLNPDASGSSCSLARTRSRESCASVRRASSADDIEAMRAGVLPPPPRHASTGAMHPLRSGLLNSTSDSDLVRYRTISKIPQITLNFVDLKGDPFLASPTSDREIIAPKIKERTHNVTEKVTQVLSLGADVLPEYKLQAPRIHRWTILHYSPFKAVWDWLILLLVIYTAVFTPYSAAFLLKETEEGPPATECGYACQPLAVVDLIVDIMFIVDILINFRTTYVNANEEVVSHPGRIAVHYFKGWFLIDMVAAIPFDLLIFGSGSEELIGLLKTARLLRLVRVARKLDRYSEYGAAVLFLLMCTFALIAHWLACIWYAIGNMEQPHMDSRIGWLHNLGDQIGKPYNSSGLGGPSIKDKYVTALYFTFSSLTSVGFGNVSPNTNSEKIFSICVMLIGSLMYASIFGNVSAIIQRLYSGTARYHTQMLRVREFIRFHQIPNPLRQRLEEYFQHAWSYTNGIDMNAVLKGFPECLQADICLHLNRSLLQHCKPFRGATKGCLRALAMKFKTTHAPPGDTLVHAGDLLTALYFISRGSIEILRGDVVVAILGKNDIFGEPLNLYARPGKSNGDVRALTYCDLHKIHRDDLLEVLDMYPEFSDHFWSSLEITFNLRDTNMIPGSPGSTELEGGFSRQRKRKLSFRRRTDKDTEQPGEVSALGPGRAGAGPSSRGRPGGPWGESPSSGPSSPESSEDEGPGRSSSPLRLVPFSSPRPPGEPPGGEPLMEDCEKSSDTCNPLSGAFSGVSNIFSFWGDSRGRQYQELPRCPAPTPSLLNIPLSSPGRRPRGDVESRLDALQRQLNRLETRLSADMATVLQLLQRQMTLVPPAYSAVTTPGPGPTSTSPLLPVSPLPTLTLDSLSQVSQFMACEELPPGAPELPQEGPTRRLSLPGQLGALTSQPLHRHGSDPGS

Compound	hERG current change (%, negative = inhibition) at 10uM
COc1ccc(Cn2c(C)c(C)c(C#N)c2NC(=O)Nc2ccc(F)cc2)cc1	-3.49%
Cn1c(CCc2ccccc2)n[nH]c1=S	12.4%
Cc1ccc(-n2cc(-c3ccccc3)c3c(N4CCN(C)CC4)ncnc32)cc1	-9.95%
S=C1NC(c2ccccc2)=CC(c2ccccc2)N1 (stereo not shown)	6.64%
COc1ccc(C(=O)N2CCN=C2SC)cc1	1.04%
CCOc1ccc(NC(=O)N2CCN(c3nc4ccccc4s3)CC2)cc1	1.91%
Cc1ccccc1NC(=O)C(=O)NNC(=O)COc1ccc2ccccc2c1	20.1%
CCc1nnc(NC(=O)C2CCCN(c3nc4ccccc4s3)C2)s1 (stereo not shown)	-5.43%
C=CCNc1nnc(Sc2ncccc2[N+](=O)[O-])s1	-4.93%
CC(=O)N1CCN(c2nc3ccc([N+](=O)[O-])cc3s2)CC1	-46.6%
COc1ccc(-n2c(CN3CCN(Cc4ccccc4)CC3)nc3ccc([N+](=O)[O-])cc3c2=O)c(OC)c1	-51.1%
O=C(Cc1n[nH]c(=O)c2ccccc12)OCC(=O)c1ccccc1Cl	11.1%
CCOc1ccc(NC(=O)CN(C)C(=O)c2cc(S(=O)(=O)N3CCCCC3)ccc2Cl)cc1OCC	-16.5%
Cc1ccc(S(=O)(=O)N2CC3CCCN3c3ccc(C(F)(F)F)cc32)cc1 (stereo not shown)	15.8%
O=C(c1ccc(S(=O)(=O)N2CCCCCC2)cc1)N1CCN(c2ccccc2F)CC1	-27.2%
COc1ccc(Cl)cc1C(=O)NCC(c1ccco1)N1CCCC1 (stereo not shown)	-44.5%
O=S(=O)(c1ccccc1)c1cnn(-c2ccccc2)c1-c1ccc(F)cc1	-0.19%
CCCCOCCCNC(=O)CCCOc1ccccc1	0.373%
CCCN(CC(=O)Nc1ccccc1OC)C(=O)c1cccc(S(=O)(=O)Nc2ccc(OC)cc2)c1	-11.4%
CC(=O)Nc1ccc(C(=O)n2nc(C)cc2C)cc1	7.12%
Cc1ccc2c(c1)C(=O)OC1(O)C3C4C=CC(C4)C3C(=O)N21 (stereo not shown)	10.2%
Cc1ccc(S(=O)(=O)N2CCN(C(=O)CSc3ncc(C(F)(F)F)cc3Cl)CC2)cc1	1.99%
CC(C)Nc1nc(-c2ccncc2)nc(-c2ccccc2)c1C#N	20.4%
COc1cc(CCC(=O)NNC(=O)c2ccc(Cl)cc2)cc(OC)c1OC	10.3%
COc1ccc(C2C(C(=O)O)CC(=O)N2C2CCCCC2)cc1 (stereo not shown)	-13.8%
CCn1c(SCC(=O)NCc2ccccc2)nc2ccccc2c1=O	-11.6%
S=C(NCCc1ccccc1)N/N=C/c1cccc(Cl)c1Cl	14.5%
CCN1C(=O)CSc2ccc(C(=O)NC3CCCCC3)cc21	-5.4%

Compound	hERG current change (%, negative = inhibition) at 10uM
COCCOc1cc(-n2ccnc2SC)c(Cl)cc1Cl	-12%
O=C(COC(=O)C1CCN(c2ccc(C(F)(F)F)cn2)CC1)Nc1cccc(F)c1	17.4%
Cc1cc(C)cc(NC(=O)c2oc3ccccc3c2COc2ccccc2)c1	1.36%
Cc1cc(C)n2nc(-c3sccc3-n3c(C)ccc3C)cc2n1	17.3%
O/N=C/c1cc2ccccc2n1Cc1ccccc1F	13.6%
CCn1c(C)c(C(C)=O)c(N2CCN(c3cccc(Cl)c3)CC2)nc1=S	-27.6%
Cc1noc(C)c1S(=O)(=O)N(CC(=O)N1CCn2c1nc1ccccc12)c1ccc(C(C)C)cc1	-14.9%
COCCOC(=O)c1c(NC(=O)CNc2ccc(C)c(F)c2)sc(C(N)=O)c1C	3.31%
CCOC(=O)N1CCN(C(=O)COC(=O)c2ccc(S(=O)(=O)N(CC)CC)cc2)CC1	-18.9%
CN(CC(=O)Nc1cccc(F)c1)C(=O)CCc1nc2cc(S(=O)(=O)N3CCOCC3)ccc2n1C	-9.01%
CCn1cc(S(=O)(=O)c2ccc(OC)cc2)c(=O)c2cc(F)c(N3CCN(C)CC3)cc21	-17.5%
Cc1cc(C)cc(C(=O)OCC(=O)Nc2ncccn2)c1	-0.75%
CC(C)OP(=O)(OC(C)C)C(Nc1ccccc1)c1cccc2c1OCO2 (stereo not shown)	-27.9%
COc1cc(NC(=O)CCc2ccccc2)nc(OC)n1	-17.8%
NC(=O)c1cccnc1Oc1ccc(Cl)cc1Cl	-16.1%
O=Cc1cn(Cc2ccccc2F)c2ccccc12	6.19%
CC1CCN(C(=O)CSc2nnc(-c3ccco3)o2)CC1	-17.4%
CC(=O)c1ccc(C(=O)Nc2ccc(N3CCOCC3)cc2)cc1	13.1%
Cc1nn(CC(=O)N2CCN(Cc3ccccc3)CC2)c(=O)c2ccccc12	-2.85%
Cc1ccc(C)c(SCC(=O)Nc2ccc(S(=O)(=O)Nc3ncccn3)cc2)c1	15.5%
CCN(CC)CCCn1c(=S)[nH]c2ncccc2c1=O	-15.9%
CC(C)(C)N1C(=O)[C@H]2[C@@H](c3ccc(Br)cc3)N3C(=O)N(c4cccc(Cl)c4)C(=O)[C@@]3(C)[C@H]2C1=O	2.53%
O=C(CSc1nnc(Cc2cccs2)n1-c1ccc(Cl)cc1)NCc1ccc2c(c1)OCO2	-34.5%
COc1ccc(COC(=O)c2ccc(S(=O)(=O)N3CCC(C)CC3)cc2)cc1	16.5%
Cc1nc2ccccc2c(=O)n1NCc1cc(Br)cs1	-8.7%
O=S(Cc1ccc(Cl)cc1)CC(O)COc1ccc(Cl)cc1 (stereo not shown)	0.213%
Nc1nc(-c2ccc(Cl)cc2)nn1C(=O)c1ccco1	23.3%
